# Laboratory results from PubChem BioAssay AID485364 (National Center for Advancing Translational Sciences (NCATS), 2010).
# The campaign covered roughly 360,000 compounds. About 11,000 (3.1%) were called active. This list was built around the results that the source calls inconclusive (neither active nor inactive); the mix of calls is not that of the screen. Calls follow the shape of the dose curve; as a rule, active = well fitted inhibition curve with a large enough effect; inconclusive = small, poorly fitted or top-dose-only effect; inactive = no such curve, though single readings can be large or run the other way. No potency is given beside an inconclusive call; the fits are too rough.
# Molecular target: Schistosoma mansoni thioredoxin glutathione reductase (TGR) (UniProt Q962Y6)
# Assay: qHTS Assay for the Inhibitors of Schistosoma Mansoni Peroxiredoxins; also: nearly all actives have a fitted effect of over 60% in size
# Conditions: purified TGR, DTNB reduction, TNB absorbance 405 nm; series mostly up to 114 µM
# Outline: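 First, TGR (20 nM dispensed) and NADPH were mixed with compound. Second, a 15 min room-temperature incubation followed. Third, further NADPH and then DTNB were added to start the reaction. Finally, TNB absorbance was monitored kinetically.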
# Potency is read from the fitted curve at half-maximal effect; tags tell the direction and shape of the fitted curve.
row,Structure (SMILES),Potency
1,COC(=O)C(NC(=O)CN1C(=O)c2ccccc2C1=O)c1ccc(O)c(OC)c1 (centres undefined),inactive
2,COc1ccc(OC)c(CNc2ccc3c(c2)CCC3)c1,"inconclusive [inhibitor, partial curve]"
3,O=c1cc(N2CCN(Cc3ccccc3)CC2)[nH]c(=O)n1Cc1ccc(F)cc1,"inconclusive [inhibitor, single point]"
4,O=C(Nc1ccc2c(c1)OCCO2)c1ccc2nccnc2c1,"inconclusive [inhibitor, partial curve]"
5,O=C(C1=C(O)C(=O)N(Cc2ccco2)C1c1cccc(O)c1)c1ccco1 (centres undefined),"inconclusive [inhibitor, partial curve]"
6,FC(F)(F)c1cccc(N2CCNCC2)c1,"inconclusive [inhibitor, partial curve]"
7,CCN(C(=O)Cn1c(=O)n(-c2ccccc2)c(=O)c2ccc(C(=O)NCc3ccc4c(c3)OCO4)cc21)c1cccc(C)c1,inactive
8,COc1cc(NS(=O)(=O)c2ccc(NC(=S)NC(=O)c3ccc(F)cc3)cc2)nc(OC)n1,active: 31.6 µM
9,O=C(CCl)Nc1ccccc1C(=O)NCc1ccccc1,"inconclusive [inhibitor, partial curve]"
10,C/C(=C\c1ccco1)C1C(C#N)=C(N)Oc2n[nH]c(-c3ccc(C)cc3)c21 (centres undefined),"inconclusive [inhibitor, single point]"
11,O=C(CSc1nc2ccccc2[nH]1)Nc1cc(C(F)(F)F)ccc1N1CCOCC1,"inconclusive [inhibitor, single point]"
12,Cc1ccc(-n2cc(C(=O)Oc3ccc(F)cc3)c3ccccc3c2=O)cc1,active: 35.5 µM
13,O=C(CSc1oc(-c2ccccc2)nc1S(=O)(=O)c1ccc(Cl)cc1)c1ccccc1,"inconclusive [inhibitor, partial curve]"
14,O=C(NCCNC(=O)c1cc(OCC(F)(F)F)ccc1OCC(F)(F)F)Nc1ccccc1,"inconclusive [inhibitor, partial curve, poor fit]"
15,O=C(O)c1cc[c]([Hg][Cl])cc1,"inconclusive [inhibitor, full curve, poor fit]"
16,O=C(CSc1nc2ccc(N3CCOCC3)cc2c(=O)n1CCc1ccccc1)NCC1CCCO1 (centres undefined),"inconclusive [inhibitor, single point]"
17,OC1(c2ccc(OC(F)F)cc2)CSC(=Nc2cccnc2)N1C1CC1 (centres undefined),"inconclusive [inhibitor, partial curve]"
18,COc1ccc2oc(=O)c(-c3nnc(-c4ccc(C)cc4)o3)cc2c1,inactive
19,CCN(CC)S(=O)(=O)c1ccc(C(=O)OCC(=O)NCc2ccco2)cc1,"inconclusive [inhibitor, partial curve]"
20,N#Cc1c(N)sc(=S)c2c1CCN(Cc1ccccc1)C2,"inconclusive [inhibitor, partial curve]"
21,Cc1[nH]c2ccccc2c1SCC(=O)O,"inconclusive [inhibitor, single point]"
22,COc1ccc(CNC(=O)c2ccc3c(=O)n(CCCN4CCCC4=O)c(=S)[nH]c3c2)cc1,inactive
23,O=C(NCCN1C(=O)C2C3C=CC(C3)C2C1=O)Nc1ccccc1O (centres undefined),"inconclusive [inhibitor, partial curve, poor fit]"

row,Structure (SMILES),Potency
1,Cc1ccc(Nc2c(-c3ccc(Br)o3)nc3ccccn23)cc1,"inconclusive [inhibitor, partial curve]"
2,O=C(/C=C/Nc1ccc(S(=O)(=O)Nc2ncccn2)cc1)c1ccc(Cl)c(Cl)c1,"inconclusive [inhibitor, full curve, poor fit]"
3,Cc1cccc(NCc2ccc(O)c3ncccc23)c1,active: 0.1 µM
4,O=C1CC(N2CCN(c3ccccc3)CC2)C(=O)N1c1ccc(Cl)cc1 (centres undefined),"inconclusive [inhibitor, partial curve]"
5,CCCCn1c(N)c(N(CC(C)C)C(=O)c2ccc(-n3c(C)ccc3C)cc2)c(=O)[nH]c1=O,"inconclusive [inhibitor, partial curve]"
6,Cc1ccc(C(=O)OCCN(C)Cc2ccccc2)cc1,inactive
7,CC(C(=O)Nc1cc(C(F)(F)F)ccc1N1CCOCC1)N1C(=O)C2CC=CCC2C1=O (centres undefined),"inconclusive [inhibitor, partial curve]"
8,COc1cc(-c2nnc(SCC(=O)c3cc(C)n(CC4CCCO4)c3C)o2)cc(OC)c1OC (centres undefined),inactive
9,C=CCOC(=O)C1=C(C)NC(SCC(=O)NC(=O)OCC)=C(C#N)C1c1cccnc1 (centres undefined),active: 39.8 µM
10,COc1ccc(NC(=O)CN2CCN(CC(=O)Nc3ccc(F)cc3)CC2)c(OC)c1,"inconclusive [inhibitor, partial curve, poor fit]"
11,COc1ccc(NC(C)=O)cc1S(=O)(=O)N1CCn2cccc2C1C (centres undefined),active: 25.1 µM
12,CCOc1cc(CNc2ccc3c(c2)CCC3)ccc1O,"inconclusive [inhibitor, full curve, poor fit]"
13,CCOc1ccccc1C(=O)NCc1ccco1,"inconclusive [inhibitor, full curve]"
14,COc1ccc(C(=O)Cc2cc(OC)c(OC)cc2[N+](=O)[O-])c(OC)c1,inactive
15,CN1c2ccsc2/C(=N/Nc2ccccc2)CS1(=O)=O,"inconclusive [inhibitor, partial curve]"
16,CN1C(=O)C(Cc2cccc3ccccc23)C(=O)N(C)C1=O,active: 14.1 µM
17,CC1CCN(CC#CCOc2ccc(Cl)cc2)CC1,"inconclusive [inhibitor, partial curve]"
18,Cc1ccc(-c2ccc(/C=N/c3ncn[nH]3)o2)cc1Cl,"inconclusive [inhibitor, partial curve]"
19,CCC(=O)OCCNc1cc(Sc2nc3ccccc3s2)c2nonc2c1[N+](=O)[O-],active: 0.251 µM
20,Cc1ccccc1Cn1c(SCc2ccc(C(=O)NC3CCCCC3)cc2)nc2ccncc21,inactive
21,COc1ccc(N/N=C/c2c(O)n(-c3ccc(C)c(C)c3)c(=O)[nH]c2=O)cc1,"inconclusive [inhibitor, partial curve]"
22,Cc1nc(SCC(=O)NCc2ccco2)c2oc3ccccc3c2n1,"inconclusive [inhibitor, partial curve]"
23,O=C(NC1CCCCC1)c1ccc(Cn2cc(Br)cn2)o1,active: 44.7 µM

row,Structure (SMILES),Potency
1,CCc1cc2c(CN3CCN(Cc4ccccc4)CC3)cc(=O)oc2cc1O,inactive
2,CCn1c(=O)cc(SCC(=O)NCc2cccc(Cl)c2)c2ccccc21,inactive
3,N#Cc1c(NC(=O)CSc2nnc(-c3ccco3)n2-c2ccccc2)sc2c1CCC2,active: 56.2 µM
4,Fc1cccc(Cl)c1Cn1nnc2c(NCc3ccncc3)ncnc21,"inconclusive [inhibitor, partial curve]"
5,COc1cc(C=O)ccc1OC(=O)c1ccncc1,"inconclusive [inhibitor, single point]"
6,Nc1cc(Br)c(N)c(Br)c1,"inconclusive [inhibitor, partial curve]"
7,COc1ccc(C2NC(=O)NC(O)(C(F)(F)F)C2C(=O)c2ccccc2)cc1OC (centres undefined),active: 35.5 µM
8,CCC(=O)C1=C(c2ccc(F)cc2)N(C(=O)CC)n2cnnc2S1,"inconclusive [inhibitor, full curve]"
9,CC(=O)c1cc2c(O)c(O)ccc2o1,"inconclusive [inhibitor, partial curve]"
10,O=C(/C=C/c1ccco1)NCC(=O)N/N=C/c1ccccc1[N+](=O)[O-],"inconclusive [inhibitor, full curve]"
11,COc1ccc(OCc2nnc3n2N=C(c2ccccc2)C(CC(=O)O)S3)cc1 (centres undefined),"inconclusive [inhibitor, partial curve]"
12,CC1=NNC(=O)C1CC(=O)N/N=C(\C)c1cccs1 (centres undefined),inactive
13,CCOC(=O)C1CCCN(C(=O)c2cn(CC)c3ccc(S(=O)(=O)N(C)C)cc3c2=O)C1 (centres undefined),"inconclusive [inhibitor, single point]"
14,Cc1noc(C)c1CSCC(=O)N(C)CC(=O)Nc1cccc(F)c1,inactive
15,CN(C)c1ccc(N=Cc2cccn2C)cc1,"inconclusive [inhibitor, partial curve]"
16,CC(C)C[C@@H](CSc1ccc(Br)cc1)N1CCN(CC(C)C)CCC1=O,"inconclusive [inhibitor, full curve, poor fit]"
17,CCC(=O)Nc1ccc(NC(=S)NC(=O)Cc2ccccc2)cc1,"inconclusive [inhibitor, partial curve]"
18,CCOC(=O)c1ccccc1NC(=O)N1CCn2c(C)ccc2C1CC (centres undefined),active: 7.08 µM
19,COC(=O)c1ccc(CSc2nc(C(F)(F)F)c3c(c2C#N)CCC3)o1,"inconclusive [inhibitor, partial curve]"
20,Cc1cc(C(=O)NCCc2ccc(Cl)cc2)c(C)o1,"inconclusive [inhibitor, partial curve]"
21,COC(=O)C1C(c2ccccc2)C(C(=O)OCc2ccco2)C1c1ccccc1 (centres undefined),"inconclusive [inhibitor, partial curve]"
22,O=c1[nH]c(-c2ccccc2)c(-c2ccccc2)nc1[N+](=O)[O-],"inconclusive [inhibitor, partial curve]"
23,c1cc2c3c(cccc3c1)NC(c1ccc3c(c1)OCO3)N2,active: 17.8 µM
